# The supplement of paper PMC12423691
# This is one part of the list. Binding of human transcription factors and regulators to the viral nucleoprotein by AlphaScreen, crude cell-free proteins, amounts not normalised, one pass. Fold of the Venus control; higher = more signal. No active / inactive call. Single-pass screen; sequences are the whole Swiss-Prot entries looked up by name.
# B1: AHR, P35869 (protein)
# chain: MNSSSANITYASRKRRKPVQKTVKPIPAEGIKSNPSKRHRDRLNTELDRLASLLPFPQDVINKLDKLSVLRLSVSYLRAKSFFDVALKSSPTERNGGQDNCRAANFREGLNLQEGEFLLQALNGFVLVVTTDALVFYASSTIQDYLGFQQSDVIHQSVYELIHTEDRAEFQRQLHWALNPSQCTESGQGIEEATGLPQTVVCYNPDQIPPENSPLMERCFICRLRCLLDNSSGFLAMNFQGKLKYLHGQKKKGKDGSILPPQLALFAIATPLQPPSILEIRTKNFIFRTKHKLDFTPIGCDAKGRIVLGYTEAELCTRGSGYQFIHAADMLYCAESHIRMIKTGESGMIVFRLLTKNNRWTWVQSNARLLYKNGRPDYIIVTQRPLTDEEGTEHLRKRNTKLPFMFTTGEAVLYEATNPFPAIMDPLPLRTKNGTSGKDSATTSTLSKDSLNPSSLLAAMMQQDESIYLYPASSTSSTAPFENNFFNESMNECRNWQDNTAPMGNDTILKHEQIDQPQDVNSFAGGHPGLFQDSKNSDLYSIMKNLGIDFEDIRHMQNEKFFRNDFSGEVDFRDIDLTDEILTYVQDSLSKSPFIPSDYQQQQSLALNSSCMVQEHLHLEQQQQHHQKQVVVEPQQQLCQKMKHMQVNGMFENWNSNQFVPFNCPQQDPQQYNVFTDLHGISQEFPYKSEMDSMPYTQNFISCNQPVLPQHSKCTELDYPMGSFEPSPYPTTSSLEDFVTCLQLPENQKHGLNPQSAIITPQTCYAGAVSMYQCQPEPQHTHVGQMQYNPVLPGQQAFLNKFQNGVLNETYPAELNNINNTQTTTHLQPLHHPSEARPFPDLTSSGFL
# B2: AGT, P01019 (protein)
# chain: MAPAGVSLRATILCLLAWAGLAAGDRVYIHPFHLVIHNESTCEQLAKANAGKPKDPTFIPAPIQAKTSPVDEKALQDQLVLVAAKLDTEDKLRAAMVGMLANFLGFRIYGMHSELWGVVHGATVLSPTAVFGTLASLYLGALDHTADRLQAILGVPWKDKNCTSRLDAHKVLSALQAVQGLLVAQGRADSQAQLLLSTVVGVFTAPGLHLKQPFVQGLALYTPVVLPRSLDFTELDVAAEKIDRFMQAVTGWKTGCSLMGASVDSTLAFNTYVHFQGKMKGFSLLAEPQEFWVDNSTSVSVPMLSGMGTFQHWSDIQDNFSVTQVPFTESACLLLIQPHYASDLDKVEGLTFQQNSLNWMKKLSPRTIHLTMPQLVLQGSYDLQDLLAQAELPAILHTELNLQKLSNDRIRVGEVLNSIFFELEADEREPTESTQQLNKPEVLEVTLNRPFLFAVYDQSATALHFLGRVANPLSTA
# B3: LRP5, O75197 (protein)
# chain: MEAAPPGPPWPLLLLLLLLLALCGCPAPAAASPLLLFANRRDVRLVDAGGVKLESTIVVSGLEDAAAVDFQFSKGAVYWTDVSEEAIKQTYLNQTGAAVQNVVISGLVSPDGLACDWVGKKLYWTDSETNRIEVANLNGTSRKVLFWQDLDQPRAIALDPAHGYMYWTDWGETPRIERAGMDGSTRKIIVDSDIYWPNGLTIDLEEQKLYWADAKLSFIHRANLDGSFRQKVVEGSLTHPFALTLSGDTLYWTDWQTRSIHACNKRTGGKRKEILSALYSPMDIQVLSQERQPFFHTRCEEDNGGCSHLCLLSPSEPFYTCACPTGVQLQDNGRTCKAGAEEVLLLARRTDLRRISLDTPDFTDIVLQVDDIRHAIAIDYDPLEGYVYWTDDEVRAIRRAYLDGSGAQTLVNTEINDPDGIAVDWVARNLYWTDTGTDRIEVTRLNGTSRKILVSEDLDEPRAIALHPVMGLMYWTDWGENPKIECANLDGQERRVLVNASLGWPNGLALDLQEGKLYWGDAKTDKIEVINVDGTKRRTLLEDKLPHIFGFTLLGDFIYWTDWQRRSIERVHKVKASRDVIIDQLPDLMGLKAVNVAKVVGTNPCADRNGGCSHLCFFTPHATRCGCPIGLELLSDMKTCIVPEAFLVFTSRAAIHRISLETNNNDVAIPLTGVKEASALDFDVSNNHIYWTDVSLKTISRAFMNGSSVEHVVEFGLDYPEGMAVDWMGKNLYWADTGTNRIEVARLDGQFRQVLVWRDLDNPRSLALDPTKGYIYWTEWGGKPRIVRAFMDGTNCMTLVDKVGRANDLTIDYADQRLYWTDLDTNMIESSNMLGQERVVIADDLPHPFGLTQYSDYIYWTDWNLHSIERADKTSGRNRTLIQGHLDFVMDILVFHSSRQDGLNDCMHNNGQCGQLCLAIPGGHRCGCASHYTLDPSSRNCSPPTTFLLFSQKSAISRMIPDDQHSPDLILPLHGLRNVKAIDYDPLDKFIYWVDGRQNIKRAKDDGTQPFVLTSLSQGQNPDRQPHDLSIDIYSRTLFWTCEATNTINVHRLSGEAMGVVLRGDRDKPRAIVVNAERGYLYFTNMQDRAAKIERAALDGTEREVLFTTGLIRPVALVVDNTLGKLFWVDADLKRIESCDLSGANRLTLEDANIVQPLGLTILGKHLYWIDRQQQMIERVEKTTGDKRTRIQGRVAHLTGIHAVEEVSLEEFSAHPCARDNGGCSHICIAKGDGTPRCSCPVHLVLLQNLLTCGEPPTCSPDQFACATGEIDCIPGAWRCDGFPECDDQSDEEGCPVCSAAQFPCARGQCVDLRLRCDGEADCQDRSDEADCDAICLPNQFRCASGQCVLIKQQCDSFPDCIDGSDELMCEITKPPSDDSPAHSSAIGPVIGIILSLFVMGGVYFVCQRVVCQRYAGANGPFPHEYVSGTPHVPLNFIAPGGSQHGPFTGIACGKSMMSSVSLMGGRGGVPLYDRNHVTGASSSSSSSTKATLYPPILNPPPSPATDPSLYNMDMFYSSNIPATARPYRPYIIRGMAPPTTPCSTDVCDSDYSASRWKASKYYLDLNSDSDPYPPPPTPHSQYLSAEDSCPPSPATERSYFHLFPPPPSPCTDSS
# B4: RFX6, Q8HWS3 (protein)
# chain: MAKVPELEDTFLQAQPAPQLSPGIQEDCCVQLLGKGLLVYPEETVYLAAEGQPGGEQGGGEKGEDPELPGAVKSEMHLNNGNFSSEEEDADNHDSKTKAADQYLSQKKTITQIVKDKKKQTQLTLQWLEENYIVCEGVCLPRCILYAHYLDFCRKEKLEPACAATFGKTIRQKFPLLTTRRLGTRGHSKYHYYGIGIKESSAYYHSVYSGKGLTRFSGSKLKNEGGFTRKYSLSSKTGTLLPEFPSAQHLVYQGCISKDKVDTLIMMYKTHCQCILDNAINGNFEEIQHFLLHFWQGMPDHLLPLLENPVIIDIFCVCDSILYKVLTDVLIPATMQEMPESLLADIRNFAKNWEQWVVSSLENLPEALTDKKIPIVRRFVSSLKRQTSFLHLAQIARPALFDQHVVNSMVSDIERVDLNSIGSQALLTISGSTDTESGIYTEHDSITVFQELKDLLKKNATVEAFIEWLDTVVEQRVIKTSKQNGRSLKKRAQDFLLKWSFFGARVMHNLTLNNASSFGSFHLIRMLLDEYILLAMETQFNNDKEQELQNLLDKYMKNSDASKAAFTASPSSCFLANRNKGSMVSSDAVKNESHVETTYLPLPSSQPGGLGPALHQFPAGNTDNMPLTGQMELSQIAGHLMTPPISPAMASRGSVINQGPMAGRPPSVGPVLSAPSHCSTYPEPIYPTLPQANHDFYSTSSNYQTVFRAQPHSTSGLYPHHTEHGRCMAWTEQQLSRDFFSGSCAGSPYNSRPPSSYGPSLQAQDSHNMQFLNTGSFNFLSNTGAASCQGATLPPNSPNGYYGSNINYPESHRLGSMVNQHVSVISSIRSLPPYSDIHDPLNILDDSGRKQTSSFYTDTSSPVACRTPVLASSLQTPIPSSSSQCMYGTSNQYPAQETLDSHGTSSREMVSSLPPINTVFMGTAAGGT
# B5: GTF2IRD1, Q9UHL9 (protein)
# chain: MALLGKRCDVPTNGCGPDRWNSAFTRKDEIITSLVSALDSMCSALSKLNAEVACVAVHDESAFVVGTEKGRMFLNARKELQSDFLRFCRGPPWKDPEAEHPKKVQRGEGGGRSLPRSSLEHGSDVYLLRKMVEEVFDVLYSEALGRASVVPLPYERLLREPGLLAVQGLPEGLAFRRPAEYDPKALMAILEHSHRIRFKLKRPLEDGGRDSKALVELNGVSLIPKGSRDCGLHGQAPKVPPQDLPPTATSSSMASFLYSTALPNHAIRELKQEAPSCPLAPSDLGLSRPMPEPKATGAQDFSDCCGQKPTGPGGPLIQNVHASKRILFSIVHDKSEKWDAFIKETEDINTLRECVQILFNSRYAEALGLDHMVPVPYRKIACDPEAVEIVGIPDKIPFKRPCTYGVPKLKRILEERHSIHFIIKRMFDERIFTGNKFTKDTTKLEPASPPEDTSAEVSRATVLDLAGNARSDKGSMSEDCGPGTSGELGGLRPIKIEPEDLDIIQVTVPDPSPTSEEMTDSMPGHLPSEDSGYGMEMLTDKGLSEDARPEERPVEDSHGDVIRPLRKQVELLFNTRYAKAIGISEPVKVPYSKFLMHPEELFVVGLPEGISLRRPNCFGIAKLRKILEASNSIQFVIKRPELLTEGVKEPIMDSQGTASSLGFSPPALPPERDSGDPLVDESLKRQGFQENYDARLSRIDIANTLREQVQDLFNKKYGEALGIKYPVQVPYKRIKSNPGSVIIEGLPPGIPFRKPCTFGSQNLERILAVADKIKFTVTRPFQGLIPKPDEDDANRLGEKVILREQVKELFNEKYGEALGLNRPVLVPYKLIRDSPDAVEVTGLPDDIPFRNPNTYDIHRLEKILKAREHVRMVIINQLQPFAEICNDAKVPAKDSSIPKRKRKRVSEGNSVSSSSSSSSSSSSNPDSVASANQISLVQWPMYMVDYAGLNVQLPGPLNY
# B6: DMRTC1B, Q5HYR2 (protein)
# chain: MAAPPKAPIRVRNLTIRAGALTGKENNMLQPETHIFTAPEEGSSQGALLLGQAPEPLSLPCTPVTLEQQLVSPSGDPHRAPALPSICSTLILQPCATLDPLLLQPQVPKVSDQALVSAHSEWQRKLEAAEALLTLRNSAQAPPDSISLHQPCNPPAPAGDKGFQPPSPSLRPRPASSISLPIGHLGCISLLS
# Target: nucleoprotein N of Crimean-Congo hemorrhagic fever virus
# Experiment: AlphaScreen luminescence signal relative to Venus negative control (fold); higher = stronger binding to CCHFV N
# Procedure: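 AlphaScreen binding of cell-free made, FLAG-GST-tagged human transcription factors and regulators (crude translation products) to biotinylated N protein; signal as fold of the FLAG-GST-Venus control. One pass.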
row,Binder,AlphaScreen luminescence signal
1,B1,4
2,B2,4.23
3,B3,3.07
4,B4,2.28
5,B5,3.91
6,B6,1.3
